According to article PMC4336329 (PLoS ONE, 2015):
Out of some 310,000 compounds screened, about 2,200 (0.71%) showed an effect of 50% or more. Effects have a minus sign here. Some of the results follow.

target: human ether-à-go-go-related gene (hERG) potassium channel (human, UniProt Q12809); test: primary screen, population patch clamp on CHO cells stably expressing hERG
Sequence (Q12809 whole entry, looked up): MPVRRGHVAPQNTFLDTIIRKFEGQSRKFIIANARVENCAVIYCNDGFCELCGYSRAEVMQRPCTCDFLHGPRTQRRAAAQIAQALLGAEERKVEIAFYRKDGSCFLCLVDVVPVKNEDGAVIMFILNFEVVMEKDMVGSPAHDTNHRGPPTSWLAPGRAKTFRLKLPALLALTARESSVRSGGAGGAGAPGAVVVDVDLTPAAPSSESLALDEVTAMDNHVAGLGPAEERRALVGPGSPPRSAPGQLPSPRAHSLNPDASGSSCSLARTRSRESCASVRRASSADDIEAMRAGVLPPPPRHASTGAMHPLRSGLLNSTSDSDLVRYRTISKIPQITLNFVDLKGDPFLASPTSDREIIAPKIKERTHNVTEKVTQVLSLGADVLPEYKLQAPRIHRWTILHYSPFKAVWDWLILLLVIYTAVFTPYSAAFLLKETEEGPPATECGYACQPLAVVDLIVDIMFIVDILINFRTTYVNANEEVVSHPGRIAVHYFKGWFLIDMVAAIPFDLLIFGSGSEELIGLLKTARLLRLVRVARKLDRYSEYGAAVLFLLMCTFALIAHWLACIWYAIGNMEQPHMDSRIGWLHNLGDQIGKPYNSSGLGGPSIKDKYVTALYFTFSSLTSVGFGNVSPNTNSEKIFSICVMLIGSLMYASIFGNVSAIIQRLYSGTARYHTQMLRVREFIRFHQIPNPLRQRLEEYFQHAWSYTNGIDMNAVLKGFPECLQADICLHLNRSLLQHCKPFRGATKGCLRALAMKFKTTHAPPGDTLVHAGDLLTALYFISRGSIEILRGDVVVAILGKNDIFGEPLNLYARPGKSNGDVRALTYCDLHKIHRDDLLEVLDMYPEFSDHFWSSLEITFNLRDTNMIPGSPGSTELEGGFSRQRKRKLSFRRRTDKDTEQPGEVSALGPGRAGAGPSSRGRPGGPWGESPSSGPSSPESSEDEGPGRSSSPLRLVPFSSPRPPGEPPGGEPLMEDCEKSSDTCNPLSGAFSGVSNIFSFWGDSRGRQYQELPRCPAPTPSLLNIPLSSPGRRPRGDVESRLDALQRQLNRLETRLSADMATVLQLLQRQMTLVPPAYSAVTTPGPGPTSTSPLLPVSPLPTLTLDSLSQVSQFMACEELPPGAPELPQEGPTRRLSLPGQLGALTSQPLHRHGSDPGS

Row | SMILES | hERG current change (%, negative = inhibition) at 1uM
1 | CC1(C(=O)NCc2ccccc2)Oc2ccccc2NC1=O (stereo not shown) | 13.9%
2 | Cc1csc(=O)n1CC(=O)OCC(=O)N(CC(C)C)c1c(N)n(Cc2ccccc2)c(=O)[nH]c1=O | 2.14%
3 | CCc1ccccc1NC(=O)CSC1=C(C#N)C(c2ccc(O)c(OC)c2)C2=C(CCCC2=O)N1 (stereo not shown) | 11.8%
4 | CCOC(=O)c1nc[nH]c1C | -3.87%
5 | CC(=O)c1ccccn1 | 16.6%
6 | O=C(N/N=C/c1ccc(OCC(=O)N2CCCCC2)cc1)c1ccccc1O | 10%
7 | Cc1ccc(S(=O)(=O)Nc2nc(-c3ccccc3)cs2)cc1 | 15.1%
8 | CCOC(=O)CN1C(=O)N(c2ccccc2OC)S(=O)(=O)c2ccccc21 | 18.2%
9 | CC(NC(=O)c1ccccc1Cl)c1ccc(-n2ccnc2)cc1 (stereo not shown) | -1.53%
10 | COc1ccccc1OCC(=O)NCCSCc1ccc(Cl)cc1 | 1.98%
11 | O=C(CN(Cc1ccco1)C(=O)c1cc(=O)[nH]c2ccccc12)Nc1ccccc1C(F)(F)F | 7.43%
12 | CC(Oc1ccccc1)C(=O)Nc1nnc(S(=O)(=O)Nc2ccccc2)s1 (stereo not shown) | 9.03%
13 | Cc1ccc(S(=O)(=O)N2CCN=C2SC(C)c2ccccc2)cc1 (stereo not shown) | 7.77%
14 | CCOC(=O)N1CCN(S(=O)(=O)c2ccc(C(=O)N(CCN(CC)CC)c3nc4ccc(C)cc4s3)cc2)CC1.Cl | 0.455%
15 | Cn1c(=O)c2c(ncn2CC(=O)N/N=C/C(Br)=C/c2ccccc2)n(C)c1=O | 4.08%
16 | CN1CCCC1=Nc1c2c(nc3ccccc13)N(C)CC2 | 9.42%
17 | Cc1ccc(C2(C)NC(=O)N(CC(=O)N(C)CC(=O)Nc3cccc(F)c3)C2=O)cc1 (stereo not shown) | 9.85%
18 | Cc1ccc(C(=O)Cc2ccccc2)o1 | 7.75%
19 | O=C(Cn1ncc2c(=O)oc3ccccc3c21)N1CCCN(Cc2ccccc2F)C1 | 1.59%
20 | O=C(O)C(=O)O.c1cncc(CNCCc2ccc3c(c2)OCO3)c1 | 10.2%
21 | O=C(CCCOc1ccccc1)Nc1ncccn1 | 11.7%
22 | N#Cc1c[nH]n2c(=O)cc(Cc3ccccc3)nc12 | 12.8%
23 | CCC(CC)C(=O)N1CCN(Cc2ccc3c(c2)OCO3)CC1 | -1.34%

Row | SMILES | hERG current change (%, negative = inhibition) at 1uM
24 | CC(C)N(C(=O)Cn1cc(S(=O)(=O)CC(=O)Nc2ccccc2)c2ccccc21)C(C)C | 3.55%
25 | O=C(CNC(=S)N(Cc1ccccc1Cl)C1CCCC1)NCCCN1CCOCC1 | 7.38%
26 | O=C(CCc1nnc(CCCCc2ccccc2)o1)N1CCCC(O)C1 (stereo not shown) | 4.77%
27 | NC(=O)CSc1nnc2ccc(-c3ccc(Cl)cc3)nn12 | 7.54%
28 | CCN1CCN(S(=O)(=O)c2ccc(Cl)c(C(=O)NC3CCCCC3)c2)CC1 | -0.482%
29 | COc1ccccc1NC(=O)CN(c1ccccc1)S(=O)(=O)c1ccccc1 | 12.8%
30 | Cc1ccccc1Nc1ccc([N+](=O)[O-])cn1 | 12.3%
31 | CCOC(=O)C1CCN(C(=S)Nc2cccc(C)c2)CC1 | 13.7%
32 | Cc1ccc(S(=O)(=O)N(C)C)cc1NC(=O)COC(=O)c1ccc2ccccc2n1 | 7.99%
33 | COc1ccc(CC(=O)N/N=C(\C)c2cccs2)cc1OC | 13.7%
34 | Cl.Nc1nonc1C(=O)N/N=C/c1cc(Br)ccc1O | 13%
35 | COc1ccc(C)cc1NC(=O)C(OC(=O)c1cnc(C)cn1)c1ccccc1 (stereo not shown) | 10.6%
36 | COc1ccc(CCNC(=O)Cc2ccc([N+](=O)[O-])cc2)cc1OC | 5.98%
37 | Cc1nc2nc(-c3ccccc3)nn2c(C)c1C | -0.954%
38 | Cc1cccn2c(CNC3CCCc4ccccc43)c(C(=O)N3CCCCC3)nc12 (stereo not shown) | 14.5%
39 | COc1ccc(C(C(=O)NCC2CCCO2)N(Cc2cccs2)C(=O)c2snc(C(N)=O)c2N)cc1OC (stereo not shown) | 22.5%
40 | Nc1nc(/C=C/c2cccnc2)nc(-c2ccccc2O)n1 | 10.4%
41 | CCc1nnc(NC(=O)c2ccc(S(=O)(=O)N(CC)CC)cc2)s1 | 17.2%
42 | CC(C)Oc1ccc(C(=O)N(CN2CCCC2=O)c2ccc(F)cc2)cc1 | 8.86%
43 | CCOC(=O)N1CCN(C(=O)CN(C)S(=O)(=O)c2ccc3c(c2)c(=O)n(C)c(=O)n3C)CC1 | 27%
44 | N#Cc1c(N)sc(=S)c2c1CCN(Cc1ccccc1)C2 | -0.674%
45 | CC1OC(C[N+](C)(C)C)CC1O.[Cl-] (stereo not shown) | 6.2%
46 | O=C(/C=C/c1ccc(Cl)cc1)NCc1ccco1 | 2.44%

Row | SMILES | hERG current change (%, negative = inhibition) at 1uM
47 | COc1ccc2cc3cc(C(=O)NCCN4CCc5ccccc5C4)sc3nc2c1 | -7.5%
48 | CC(C)n1c(SCC(=O)Nc2ccccc2)nc2c1c(=O)n(C)c(=O)n2C | 5.81%
49 | CCCCN(C(=O)c1ccc(S(=O)(=O)N(C)C)cc1)c1ccccc1 | 5.03%
50 | CC(C)c1nc(N2CCN(C(=O)c3ccccc3)CC2)c(C#N)c2c1COC(C)(C)C2 | -6.07%
51 | COc1ccc(CNc2nc(=S)[nH]c3cc(OC)c(OC)cc23)cc1 | 9.14%
52 | Cc1ccc(N2CC(O)Cn3c2nc2c3c(=O)[nH]c(=O)n2C)cc1 (stereo not shown) | 10.8%
53 | CSC1=NC2(CCCCC2)CC12C=CC(=O)C=C2 | 10.9%
54 | Cc1ccnc(NC(=O)CCC(=O)N(CC(=O)NC(C)(C)C)C2CCCC2)c1 | 9.41%
55 | COc1ccccc1NC(=S)N1CC(C)(C)C1=O | 4.26%
56 | COC(=O)CN1CCN(C(c2ccccc2)c2ccccc2)CC1 | 7.36%
57 | C/C(=N\NC(=O)c1cc(-c2ccc(Cl)s2)[nH]n1)c1ccncc1 | 5.8%
58 | CCCNC(=O)C1(CC2CC(c3ccccc3)=NO2)CCNCC1 (stereo not shown) | 12.2%
59 | C/C(=N\NC(=O)c1nn(C)cc1Cl)c1ccncc1 | 4.34%
60 | Cc1ccc2[nH]c3c(=O)n(Cc4ccco4)cnc3c2c1 | 13.5%
61 | CCCN(CCO)CCCc1ccccc1 | 5.56%
62 | COc1ccc(Cc2nnc(NC(=O)c3ccco3)s2)cc1 | -5.35%
63 | C=CCOc1cccc(C(=O)N2CCCC(Nc3ccc(F)cc3)C2)c1 (stereo not shown) | -5.03%
64 | Cc1nc2c(Br)cc(Br)cc2cc1O | 12.9%
65 | Cc1ccc2nc(N3CCN(S(=O)(=O)c4ccc(C)c(Cl)c4)CC3)c(C#N)cc2c1 | 5.94%
66 | O=C(Nc1ccc(Cl)cc1)Nc1cccnc1 | -17.8%
67 | CCC(=O)Nc1cc2c(cc1C(=O)CC)OCCO2 | 13.7%
68 | CC12CN3CC(C)(CN(C1)C3c1ccc([N+](=O)[O-])o1)C2 (stereo not shown) | 16.9%
69 | Cc1cc(C(=O)N/N=C/c2ccc(-c3ccc([N+](=O)[O-])cc3C)o2)n[nH]1 | 10.5%

Row | SMILES | hERG current change (%, negative = inhibition) at 1uM
70 | Cc1ccc(OCC(=O)Nc2ccccc2C(N)=O)cc1 | 11.6%
71 | Cc1ccc(S(=O)(=O)N(C)C)cc1NC(=O)COC(=O)C1CC(=O)N(c2ccc3c(c2)OCCO3)C1 (stereo not shown) | 8.56%
72 | CCOCC(=O)Nc1c(C(=O)N2CCN(c3ncccn3)CC2)oc2ccccc12 | 5.42%
73 | Oc1ccc(/C=N/NC(=S)N/N=C/c2ccc(O)cc2)cc1 | 14.5%
74 | O=C(Nc1ccc(OCc2ccccc2Cl)cc1)c1cccnc1 | 9.12%
75 | Cc1nn(-c2ccc(F)cc2)c(N)c1C1(O)C(=O)Nc2ccccc21 (stereo not shown) | 13%
76 | Cc1ccc2c(c1)c1c(n2CC(O)CN2CCCCC2C)CCCC1 (stereo not shown) | -1.86%
77 | CC(C)C(=O)n1nc(-c2cccnc2)nc1NCc1cccs1 | 5.8%
78 | Cc1ccc(S(=O)(=O)c2cc3c(=O)n4ccccc4nc3n(CCc3ccccc3)c2=N)cc1 | 6.17%
79 | CCN(CC(=O)NCc1cccs1)C(=O)C(c1ccccc1)c1ccccc1 | 3.62%
80 | CCOC(=O)c1ccccc1NC(=S)N1CCN(C2CCCCC2)CC1 | -18.8%
81 | CCCCOc1ccc(NC(=O)CCSc2nccn2C)cc1 | 7.91%
82 | Cc1nc2ccccc2cc1C(=O)Nc1ccccc1Cl | 3.5%
83 | COc1ccc(N2C(=O)CC(NCCNc3ccc([N+](=O)[O-])cn3)C2=O)cc1 (stereo not shown) | -13.7%
84 | COc1ccc(-c2nc(N)n(C(=O)c3cccs3)n2)cc1 | 16.6%
85 | C/C(=C/c1ccccc1)C(=O)N1CCN(c2ccccc2)CC1 | 8.49%
86 | Cl.c1csc(-c2cnc3n2CCCC3)c1 | 9.11%
87 | O=S(=O)(NNc1ncc(C(F)(F)F)cc1Cl)c1ccccc1 | 6.1%
88 | O=C(COC(=O)c1cnccn1)c1ccc(Cl)c([N+](=O)[O-])c1 | 14.6%
89 | CCOc1ncccc1C(=O)Nc1ccc(C)cn1 | 9.31%
90 | CCCCN1C(=O)C2Cc3c([nH]c4ccccc34)CN2C1=S (stereo not shown) | 11%
91 | CCOC(=O)Cn1nc(-c2ccccc2)c(-c2ccccc2)nc1=O | 10.4%
